Measurements reported in patent US12662541B2, “Antibody-drug conjugates against the receptor tyrosine kinase EphA5” (Rutgers, The State University of New Jersey, priority 2021, dated 2026).
“Also recorded” adds a separate entry of the source.

B1: VH5/VK3: humanized anti-EphA5 IgG1/kappa antibody, heavy chain SEQ ID NO:39, light chain SEQ ID NO:40 (antibody)
heavy: EVQLVESGGGLVQPGGSLKLSCAASGFTFSTFGIHWVRQAPGKGLEWVAYISGASTTIYYADSVKGRFTISRDNSKNTLYLQMNSLRAEDTAVYYCARYGTSFPYGLDYWGQGTLVTVSSASTKGPSVFPLAPSSKSTSGGTAALGCLVKDYFPEPVTVSWNSGALTSGVHTFPAVLQSSGLYSLSSVVTVPSSSLGTQTYICNVNHKPSNTKVDKRV[letters of human IgG1 Fc left out]
light: DIVMTQSPDSLAVSLGERATINCKASQSVDYDGDSYMNWYQQKPGKAPKLLIYGASNLESGIPDRFSGSGSGTDFTLTISRLEPEDAAVYYCQQSNEDPFTFGQGTKLEIKRTVAAPSVFIFPPSDEQLKSGTASVVCLLNNFYPREAKVQWKVDNALQSGNSQESVTEQDSKDSTYSLSSTLTLSKADYEKHKVYACEVTHQGLSSPVTKSFNRGEC
B2: VH5Vk3-ThioBridge®-VCP-MMAE (conjugate)
heavy: EVQLVESGGGLVQPGGSLKLSCAASGFTFSTFGIHWVRQAPGKGLEWVAYISGASTTIYYADSVKGRFTISRDNSKNTLYLQMNSLRAEDTAVYYCARYGTSFPYGLDYWGQGTLVTVSSASTKGPSVFPLAPSSKSTSGGTAALGCLVKDYFPEPVTVSWNSGALTSGVHTFPAVLQSSGLYSLSSVVTVPSSSLGTQTYICNVNHKPSNTKVDKRV[letters of human IgG1 Fc left out]
light: DIVMTQSPDSLAVSLGERATINCKASQSVDYDGDSYMNWYQQKPGKAPKLLIYGASNLESGIPDRFSGSGSGTDFTLTISRLEPEDAAVYYCQQSNEDPFTFGQGTKLEIKRTVAAPSVFIFPPSDEQLKSGTASVVCLLNNFYPREAKVQWKVDNALQSGNSQESVTEQDSKDSTYSLSSTLTLSKADYEKHKVYACEVTHQGLSSPVTKSFNRGEC

Experiments:
[1] = tested on: 6,000 human membrane protein clones; assay: Membrane Proteome Array (MPA) specificity screen; type: binding; details: 20 μg/ml antibody, HEK-293T; listed as EPHA5 H5K3
Protocol: To optimize conditions for test antibody detection, HEK-293T cells and QT6 cells were transfected with plasmids encoding known test antibody targets, Protein A (binds antibody Fc; positive control), or vector alone (pUC; negative control) in 384-well cell-culture plates. After incubation, four four-fold dilutions starting at 20 μg/ml of each test antibody were added in quadruplicate to transfected cells and detected using a single dilution of secondary antibody in a high-throughput immunofluorescence flow cytometry assay. Data from assay setup experiments were used to determine the optimal screening conditions for high-throughput immunodetection (Table E4). Optimal screening concentrations were determined by the background signal (mean fluorescence intensity (MFI)), and false positive rate in the vector control.
Membrane Proteome Array: Membrane Proteome Array (MPA) screening was conducted at Integral Molecular. The MPA is a protein library composed of 6,000 human membrane protein clones, each overexpressed in live cells from expression plasmids. […] Before screening on the MPA, the test antibody concentration for screening was determined on cells expressing positive (membrane-tethered Protein A) and negative (mock-transfected) binding controls, followed by detection by flow cytometry using a fluorescently-labeled secondary antibody. […]

[2] = tested on: H522, H460, A549 and H1299 cells; assay: Incucyte cytotoxicity of ADC (% confluence); type: cell-based, human; details: EphA5 expression H522 (++++)>H460 (+++)>A549 (++)=H1299 (++)
[3] = tested on: patient-derived xenograft model (PDX) of breast cancer, ER, PR, and HER2 negative invasive ductal carcinoma; assay: Triple-negative breast cancer PDX efficacy (Example 4); type: in vivo, mice; details: 5 doses of 10 mg/kg every 7 days; controls reached endpoints within 16 days
Protocol: Lastly, a study was performed using a patient-derived xenograft model (PDX) of breast cancer. Briefly, tissue from an ER, PR, and HER2 negative (triple-negative) invasive ductal carcinoma breast tumor was xenografted into mice. […] After engraftment but prior to treatment, xenograft tissue was evaluated for the expression of EphA5 (FIG. 98, left). Treatment consisted of 5 doses of MMAE-conjugate ADC at 10 mg/kg administered every 7 days.

[4] = tested on: PDX model TM00098 (BR1126F), triple negative breast cancer; assay: PDX TM00098 efficacy; type: in vivo, mice
Protocol: The present studies were performed using female NSG™ mice implanted with the PDX model TM00098 (BR1126F) purchased from Jackson Laboratories. These mice are extremely immunodeficient and carry two mutations: severe combined immune deficiency (scid) and a complete null allele of the IL2 receptor common gamma chain (IL2rgnull). The scid mutation is a mutation in the DNA repair complex protein Prkdc and renders the mice B and T cell deficient. The IL2rgnull mutation prevents cytokine signaling through multiple receptors, leading to a deficiency in functional NK cells. This severe immunodeficiency allows the implantation of PDX and growth of human tissue-based tumors in the mice. These tumors have similar characteristics to the human tumors from which they are derived (e.g., gene expression) and are predictive of human response to therapeutic agents.
Mice received 5 weekly doses of ADC1 or ADC2 at 10 mg/kg or PBS via tail vein injection. Animals were dosed on days 0, 7, 14, 21 and 28 and observed the tumors from day 28-50 without treatment to observe sustained regression and/or delay in tumor regrowth. The number of mice used per group averaged n=7-10 with some mice presenting with more than 1 tumor implanted subcutaneously. In those cases, each tumor size was measured and recorded independently. […]

| Molecule | Identified membrane protein targets, Target gene (HGNC) [1] | ADC induced cell death (decrease of confluence) [2] | tumor growth [3] | tumor response (tumor volume) ([4]; 5 weekly doses of 10 mg/kg tail vein, 50 days, here ADC2 = VH5Vk3-ThioBridge®-VCP-(SN-38)2) | tumors removed at termination (weight) ([4]; ADC2 = VH5Vk3-ThioBridge®-VCP-(SN-38)2) |
| --- | --- | --- | --- | --- | --- |
| B1 | EPHA5; also recorded: CPT1B |  |  |  |  |
| B2 |  | increasing amounts of ADC induced cell death which is dependent on the levels of expression of the target EphA5 | little measurable tumor growth | full and sustained regression of tumors | completely regressed |
